# ChEMBL document CHEMBL4888484, “Replenishing the malaria drug discovery pipeline: Screening and hit evaluation of the MMV Hit Generation Library 1 (HGL1) against asexual blood stage Plasmodium falciparum ,using a nano luciferase reporter read-out” (2022)
# Values joined by “and” are separate entries in the source; they are usually repeats but may differ in a detail not shown here. Equal values may be shown once. The whole screen tested about 150,000 compounds, of which about 540 (0.36%) showed an effect of 50% or more. Some of the results follow.
# System: Plasmodium falciparum
# Experiment: Primary screen in NF54 nanoGlo assay, in single point, at 2uM, 72h; a lower Z score goes with more inhibition
# Assay type: functional, Erythrocyte
# Conditions: timepoint 72 hour
Compound,% Inhibition [%],Z score,% Inhibition (2 µM),Z score (2 µM)
Cc1ccc(CCNC(=O)c2cc(CN3CCc4ccccc4C3)on2)o1,-11,1.45,,
Cc1cc(-c2c(C)sc(C)c2S(=O)(=O)N2CCN(c3ccc(Cl)cc3)CC2)on1,-7,1.22,,
COc1nc2c(cc1CNC(=O)c1ncccc1O)C(=O)N(C1CCCC1)C2,-11,1.21,,
CCN(C(=O)Cn1c(=O)n(Cc2ccco2)c(=O)c2c1c(C)nn2CC)c1cccc(C)c1,4,-0.48,,
COCC1(NC(=O)c2nc(C)sc2C)CCCC1,-5,0.73,,
Cc1cc(=O)[nH]cc1C(=O)N(Cc1cccnc1)Cc1ccco1,-10,1.03,,
O=C(c1c(F)ccc2c1OCO2)N1CCO[C@@]2(CCCOC2)C1,-3,0.6,,
O=C1CN(c2ccc(CNC(=O)NCc3cccs3)cc2)CCN1,-3,0.57,,
Cc1cc(NC(=O)CN2CCCC[C@H]2C(N)=O)ccc1N1CCCC1,-5,0.51,,
CCCCS(=O)(=O)NC[C@H](O)CN1CCC(C)CC1,8,-1.05,,
O=C(Cc1c(F)cccc1Cl)Nc1cc(N2CCCC2=O)ccc1Cl,0,-0.08,,
O=C(NCc1ccc(OCc2cccnc2)cc1)c1ccc2c(c1)OCO2,-1,0.14,,
CCn1c(Cn2cnc3ccccc3c2=O)nc2c(F)cccc21,-8,1.05,,
CN1CCCN(C(=O)c2ccc(Cl)cc2O)CC12CCNCC2,-2,0.27,,
CC(C)c1ncc(C(=O)N2CCCCC3CCCCC32)s1 (stereo unspecified),-5,0.7,,
Cc1cc(=O)n2nc(COc3nc(C(C)C)no3)sc2n1,-3,0.44,,
COC(=O)c1nsc2cc(C#N)ccc12,-14,2.02,,
COc1ccccc1N1C(=O)C2C(c3cccs3)NC(Cc3ccccc3)(C(=O)O)C2C1=O (stereo unspecified),-13,1.42,,
C[C@@H](CC1CCCC1)C(=O)Nc1cnn(Cc2cnn(C)c2)c1,-11,1.36,,
CC(C)N(C(=O)Cc1csc(NC(=O)c2ccco2)n1)C1CCC1,-3,0.32,,
Cn1ccnc1CNC(=O)N1CCC(Oc2cccc(C(F)(F)F)c2)CC1,6,-0.54,,
O=C(c1cc(-c2ccc(F)cc2)[nH]n1)N1CCC(N2CCCCC2)CC1,26,-2.98,,
COc1ccc(-c2ncc3c(n2)CCN(S(=O)(=O)c2ccccc2C(F)(F)F)C3)cc1,-2,0.24,,
CC(c1nnnn1C1CCCCC1)N1CCC2OCCCC2C1 (stereo unspecified),-2,0.38,,
c1cnc(-c2ccnc(NC3CCC4CCCC4C3)n2)cn1 (stereo unspecified),5,-0.56,,
O=C(Cc1cc(-c2ccccc2)on1)N1CCOC[C@@H]1CCO,-9,1.29,,
NC(=O)C1CCN(C(=O)CN(Cc2ccccn2)C2CC2)CC1,-3,0.3,,

Compound,% Inhibition [%],Z score,% Inhibition (2 µM),Z score (2 µM)
COc1ccc(C2C(CNC(C)c3ccncc3)CCN2C)cc1 (stereo unspecified),-11,1.28,,
Cc1ccc(OCCC(=O)N[C@H]2CCS(=O)(=O)C2)cc1C,-1,0.1,,
CCC#CCN1CCCn2nc(CCC(=O)N3CCC(O)CC3)cc2C1,-11,2.09,,
Cc1c[nH]c(C(=O)NCCc2ccc(C)s2)n1,2,-0.31,,
Cc1noc2nc(CCC(=O)Nc3cccc(Br)c3)nc(N3CCCCCC3)c12,9,-1.34,,
Cc1ccc2c(=O)c(-c3nc(-c4ccc(F)cc4)no3)cn(CC(=O)Nc3ccccc3C)c2n1,-18,1.58,,
COc1cc2c(cc1OC)[C@H](c1cccc(Cl)c1)N(CC1CCCCC1)CC2,0,0.06,,
Cc1noc(C)c1CCC(=O)N[C@H]1CCN(Cc2ccccn2)C[C@@H]1O,-10,1.96,,
Cc1n[nH]c(C)c1S(=O)(=O)N1C[C@H]2CC[C@@H](C1)N(C)C2,-16,1.94,,
Cc1nc(CCNc2ccc(C(=O)Nc3nncs3)cn2)cs1,-7,0.98,,
C[C@H](Oc1ccccc1)C(=O)N1CCC(N2C(=O)COC2=O)CC1,0,0.05,,
Cc1ccc2[nH]c(C)c(CC(=O)Nc3cc(C(C)(C)C)nn3[C@H]3CCS(=O)(=O)C3)c2c1,3,-0.4,,
O=C(NS(=O)(=O)C[C@H]1CCCO1)C1CCCC1,-5,0.79,,
Cc1cc(=O)n2nc(-c3ccccc3Cl)nc2n1CC(=O)N1CCN(c2ccccc2)CC1,-11,1.34,,
COCc1ncc(C)n1CCNC(=O)c1cn(C)nc1C,-15,1.7,,
COc1ccc(S(=O)(=O)N2CCOCC2)cc1NC(=O)[C@@H]1Cc2ccccc2C(=O)O1,-3,0.44,,
O=S(=O)(c1cccs1)n1ccnc1,-12,2.22,,
O=C(C[n+]1ccn2cccc2c1-c1ccccc1)c1ccccc1,3,-0.43,,
CCc1ccc(NC(=O)Cn2cc(-c3nc(C(C)C)no3)ccc2=O)cc1,-2,0.33,,
CC[C@H](C)NS(=O)(=O)c1cc(-c2nnc(C)o2)cs1,-6,0.73,,
CC(C)c1ccc(-n2cc(-c3ccccc3)nc2NC(=O)CN(CCN(C)C)C(=O)c2ccccc2)cc1,-6,0.83,,
c1ccc(COc2ccc3c(c2)CCCN3)cc1,-8,1.42,,
CN1CCN(C)[C@@H](CNS(=O)(=O)c2ccccc2C(C)(C)C)C1,-10,1.02,,
Cc1ccccc1-c1cn2c(C(=O)N(C)[C@@H](C)c3ccccn3)csc2n1,4,-0.68,,
Cc1nc(C(=O)NCCCN(C)c2ccccc2)c(C)s1,-11,1.17,,
COc1ccc([C@H]2CC(=O)Nc3nc(N)sc32)cc1OCc1ccc(F)cc1,,,-12% and -24%,1.6 and 3.09
